According to PubChem BioAssay (Tox21):
Values joined by “and” are separate entries in the source; they are usually repeats but may differ in a detail not shown here. Equal entries are not always repeated. The inconclusive results got no clear call from the source; some entries with a clear call stand among them for comparison. Potencies of inconclusive entries are doubtful fits and often do not repeat. Active and inactive are the calls of the source. Unless noted, calls come from the whole dose curve; as a rule, active = well fitted curve in the direction sought with a large enough effect in the repeat runs; inconclusive = weak or mixed curves; inactive = no such curve, though single readings can be large; an effect the other way counts as inactive or inconclusive.

Columns and labels:
[1] = qHTS assay for small molecule agonists of the p53 signaling pathway (AID 651631; calls by dose curve; note: nearly all actives have a fitted effect of over 15% in size; for activation: % is set by controls: 0 for no effect and ±100 for the full control effect); details: HCT-116 p53RE-bla reporter, beta-lactamase FRET ratio, 16 h; activation: at 73.3 µM (top of the series) unless noted
How it was run: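 Readout was fluorescence from the LiveBLAzer FRET substrate, applied for 2 h at room temperature after 16 h compound exposure at 37 °C. Cells were the p53RE-bla HCT-116 line, with beta-lactamase driven by p53 response elements.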

[2] = qHTS assay for small molecule disruptors of the mitochondrial membrane potential (AID 720635); details: HepG2 mitochondrial membrane potential, Mito-MPS dye ratio; ratio activity, negative = MMP loss: at 83.2 µM (top of the series) unless noted; for ratio activity, negative = MMP loss: % is set by controls: 0 for no effect and ±100 for the full control effect
How it was run: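 HepG2 cells exposed to compound 1 hr at 37C, then Mito-MPS dye 30 min. Ratio read of aggregate (540/590 nm) versus monomer (490/535 nm) fluorescence.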

[3] = target: Glucocorticoid receptor (Homo sapiens) (UniProt P04150); test: qHTS assay to identify small molecule antagonists of the glucocorticoid receptor (GR) signaling pathway (AID 720692; active = well fitted inhibition curve with a large enough effect in the signal ratio in the repeat runs, not every such curve was filed as active; inconclusive = weak or mixed curves, or effect the other way; inactive = no such curve, though single readings can be large or run the other way; the % refers to the signal ratio; for activity change, negative = inhibition: % is set by controls: 0 for no effect and ±100 for the full control effect); details: GR-bla HeLa, beta-lactamase FRET ratio, dexamethasone-stimulated, 18 h; activity change, negative = inhibition: at 58.5 µM (top of the series) unless noted
UniProt P04150, sequence (P04150 whole entry, looked up): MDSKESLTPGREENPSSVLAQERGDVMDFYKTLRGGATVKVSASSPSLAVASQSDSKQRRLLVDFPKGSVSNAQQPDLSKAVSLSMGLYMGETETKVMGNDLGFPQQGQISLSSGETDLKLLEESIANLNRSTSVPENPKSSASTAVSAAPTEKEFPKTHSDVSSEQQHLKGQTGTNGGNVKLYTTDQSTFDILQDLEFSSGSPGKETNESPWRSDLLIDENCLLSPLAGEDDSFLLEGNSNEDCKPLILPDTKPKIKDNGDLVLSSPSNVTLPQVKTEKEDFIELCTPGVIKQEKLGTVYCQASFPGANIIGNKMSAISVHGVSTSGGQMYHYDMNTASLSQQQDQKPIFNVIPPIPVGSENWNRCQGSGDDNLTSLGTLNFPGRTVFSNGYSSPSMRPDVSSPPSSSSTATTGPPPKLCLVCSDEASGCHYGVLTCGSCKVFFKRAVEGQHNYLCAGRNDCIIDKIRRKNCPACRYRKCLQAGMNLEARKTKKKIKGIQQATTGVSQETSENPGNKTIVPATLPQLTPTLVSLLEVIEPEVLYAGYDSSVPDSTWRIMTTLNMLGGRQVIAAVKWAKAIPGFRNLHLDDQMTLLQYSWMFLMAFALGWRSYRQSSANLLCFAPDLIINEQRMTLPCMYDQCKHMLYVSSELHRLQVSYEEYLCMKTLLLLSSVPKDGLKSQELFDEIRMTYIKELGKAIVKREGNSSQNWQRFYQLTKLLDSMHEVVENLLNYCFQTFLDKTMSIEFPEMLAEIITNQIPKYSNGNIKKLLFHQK
How it was run: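 GRE-bla HeLa line, dex-stimulated (5 nM final). Compound exposure 18 h, 37 C. Beta-lactamase FRET read after 2 h RT substrate.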

[4] = target: Glucocorticoid receptor (Homo sapiens) (UniProt P04150); test: qHTS assay to identify small molecule agonists of the glucocorticoid receptor (GR) signaling pathway (AID 720691; active = well fitted activation curve with a large enough effect in the signal ratio in the repeat runs, not every such curve was filed as active; inconclusive = weak or mixed curves, or effect the other way; inactive = no such curve, though single readings can be large or run the other way; the % refers to the signal ratio; for activation: % is set by controls: 0 for no effect and ±100 for the full control effect); details: GR-bla HeLa, beta-lactamase reporter ratio, 18 h; activation: at 62.4 µM (top of the series) unless noted
How it was run: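 A HeLa cervical cancer line expressing GR and a glucocorticoid response element-driven beta-lactamase gene is treated with compounds for 18 h; LiveBLAzer B/G FRET substrate is then applied and fluorescence read.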

[5] = qHTS assay to identify small molecule antagonists of the glucocorticoid receptor (GR) signaling pathway - cell viability counter screen (AID 720693); details: GR-bla HeLa viability, CellTiter-Glo luminescence, 18 h, with 5 nM dexamethasone present; viability change, negative = cytotoxic: at 58.5 µM (top of the series); note: nearly all actives have a fitted effect of over 55% in size
Potency is the fitted concentration of half-maximal effect; tags give direction and shape of the fitted curve or compound fluorescence and quenching.

CC[C@]1(O)C[C@@H]2CN(CCc3c([nH]c4ccccc34)[C@@](C(=O)OC)(c3cc4c(cc3OC)N(C)[C@H]3[C@@](O)(C(=O)OC)[C@H](OC(C)=O)[C@]5(CC)C=CCN6CC[C@]43[C@@H]65)C2)C1
Potency [1]: inconclusive: 4.2 nM [activator] and active: 42.2 nM | Potency [2]: active: 1.88 µM and active: 944 nM | Potency [3]: inconclusive: 169 nM [activator] and inconclusive: 84.9 nM [activator, full curve]

CN1CCCC(CC2c3ccccc3Sc3ccccc32)C1 (centres undefined)
Potency [1]: inconclusive: 7.17 µM [rising, partial curve] | Potency [2]: inconclusive: 2.54 µM [activator, full curve] | activity change, negative = inhibition [3]: inconclusive: 14.9% [at 27 µM]

C=C/C(C)=C/C/C=C(\C)CCC=C(C)C
Potency [1]: inconclusive: 77 µM [falling, partial curve, poor fit] | Potency [2]: inconclusive: 24.3 µM [activator, partial curve, poor fit] | Potency [3]: active: 38.9 µM

CN[C@H]1CC[C@@H](c2ccc(Cl)c(Cl)c2)c2ccccc21
Potency [1]: inconclusive: 29.8 µM [cytotoxic, single point] | Potency [2]: inconclusive: 3.35 µM [activator, partial curve] | Potency [3]: inconclusive: 23.9 µM [fluorescent, partial curve, poor fit]

CCCCCCOc1ccccc1C(N)=O
Potency [1]: inconclusive: 13.3 µM [rising, full curve] | Potency [2]: active: 6.68 µM | activity change, negative = inhibition [3]: inconclusive: 30%

Nc1ccc([N+](=O)[O-])cc1O
Potency [1]: inconclusive: 4.86 µM [falling, full curve] | Potency [2]: active: 17.2 µM | Potency [3]: inconclusive: 34.7 µM [activator]

CCCCCCCCOc1ccccc1C(=O)Nc1ccc(C(=O)OCC[N+](C)(CC)CC)cc1
Potency [1]: inconclusive: 29.8 µM [falling, partial curve] | Potency [2]: active: 31.2 µM | Potency [4]: inconclusive: 26.8 µM [cytotoxic, single point] | Potency [3]: inconclusive: 26.8 µM [cytotoxic, single point] | Potency [5]: active: 23.9 µM

CC(C)n1nc(-c2cc3cc(O)ccc3[nH]2)c2c(N)ncnc21
Potency [1]: inconclusive: 29.8 µM [cytotoxic] | Potency [2]: inconclusive: 1.5 µM [inhibitor, partial curve, poor fit] | Potency [4]: inconclusive: 4.77 µM [inhibitor] | Potency [3]: inconclusive: 0.425 µM [cytotoxic, full curve]

Oc1cccc(-c2c3nc(c(-c4cccc(O)c4)c4ccc([nH]4)c(-c4cccc(O)c4)c4nc(c(-c5cccc(O)c5)c5ccc2[nH]5)CC4)C=C3)c1
Potency [1]: inconclusive: 13.3 µM [cytotoxic] and inconclusive: 11.9 µM [cytotoxic] | Potency [2]: active: 26.6 µM and inconclusive: 7.5 µM [cytotoxic, partial curve] | Potency [4]: inconclusive: 10.7 µM [cytotoxic, partial curve] and inconclusive: 23.9 µM [cytotoxic, partial curve] | Potency [3]: inconclusive: 21.3 µM [cytotoxic, partial curve] and inconclusive: 19 µM [cytotoxic, partial curve] | Potency [5]: inconclusive: 21.3 µM [cytotoxic] and inconclusive: 21.3 µM [cytotoxic, partial curve]

NCCc1cnc[nH]1
activation [1]: inconclusive: 8.98% | ratio activity, negative = MMP loss [2]: inconclusive: 31.1% | activation [4]: inconclusive: 6.16% | activity change, negative = inhibition [3]: inconclusive: 47.8%

C=C(C)C(=O)OCC[N+](C)(C)C
Potency [1]: inactive | ratio activity, negative = MMP loss [2]: inconclusive: 18.2% | Potency [3]: inactive

CC1(C)CC(OC(=O)CCCCCCCCC(=O)OC2CC(C)(C)NC(C)(C)C2)CC(C)(C)N1
Potency [1]: inconclusive: 4.7 µM [rising, partial curve] | Potency [2]: active: 2.96 µM | Potency [4]: inactive | Potency [3]: inactive

CCCC1C(CC)=CC(CC)=CN1c1ccccc1 (centres undefined)
activation [1]: inconclusive: 5.23% | Potency [2]: active: 54.5 µM | Potency [3]: active: 49 µM

COc1cccc(OC)c1C(=O)N[C@@H]1C(=O)N2[C@@H]1SC(C)(C)[C@@H]2C(=O)O
Potency [1]: inconclusive: 16.8 µM [activator, partial curve, poor fit] | Potency [2]: inactive | Potency [3]: inactive
